In PMC7819943, “Rice protein-binding microarrays: a tool to detect cis-acting elements near promoter regions in rice”:
Some of the results follow.

target: T1, OsWOX13 (Oryza sativa, UniProt Q5QMM3 1-267); assay: protein-binding microarray (RPBM); PBS, 2% BSA, 51.3 ng/ul salmon testes DNA, 50 uM zinc acetate, 200 nM TF, 25 C, 1 h; high values mean tight binding; conditions: protein: recombinant; tags: N-terminal polyhistidine and DsRed monomer fusion (pET32a); label: CyDye5-dUTP incorporated in the synthesized complementary strand; 3' TTTTT single-stranded linker to array surface; dsDNA, one strand shown
T1 sequence: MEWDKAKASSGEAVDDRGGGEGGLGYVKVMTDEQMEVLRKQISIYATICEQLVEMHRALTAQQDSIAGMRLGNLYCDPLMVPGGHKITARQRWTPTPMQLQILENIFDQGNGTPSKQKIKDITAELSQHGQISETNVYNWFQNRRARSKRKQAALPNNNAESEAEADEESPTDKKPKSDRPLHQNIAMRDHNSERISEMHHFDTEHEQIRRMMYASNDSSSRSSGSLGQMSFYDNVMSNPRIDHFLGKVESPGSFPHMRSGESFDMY
Method in brief: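 An Axon 4000B scanner gave the binding signal as per-feature fluorescence intensity in arbitrary units. This followed washing of a custom Agilent array that had been incubated for 1 h at 25 °C with 200 nM protein in PBS, 2% BSA, salmon testes DNA and 50 µM zinc acetate. The proteins were transcription factors fused at the N-terminus to polyhistidine and DsRed, expressed in E. coli BL21-CodonPlus and purified on Ni–NTA.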

| Sequence | binding signal |
| --- | --- |
| GGTTAATGGAACATATTCTACTACGAATATGAATACGAATCGGAGTCACCTAGTGCAG | 9050 fluorescence intensity (a.u.) |
| AGAAATCGTGATTGTTATTAAGCGAGAAGGTAGAAACATCCGGAGTCACCTAGTGCAG | 8880 fluorescence intensity (a.u.) |
| TTATAATCAGGGTTTAGATGGAGAAAACAAACAGATAGAGCGGAGTCACCTAGTGCAG | 9790 fluorescence intensity (a.u.) |
| CCAAAACTATTAACTGCAACCTTACCTGATGATATATTTGCGGAGTCACCTAGTGCAG | 5780 fluorescence intensity (a.u.) |
| TATAATTCCATGATAAATTTAATACTAAATACGTAATTTTCGGAGTCACCTAGTGCAG | 8520 fluorescence intensity (a.u.) |
| ACTCCTGTCAGGTCAGGAAATTTGCTTGAAATCTTCCCGACGGAGTCACCTAGTGCAG | 3550 fluorescence intensity (a.u.) |
| GATTAATCCAATTGACTTTGATGAGGATGTGCCACTATTTCGGAGTCACCTAGTGCAG | 6820 fluorescence intensity (a.u.) |
| CTAACTGCATCTCATGATTTTCTGAAAATATATATATCCACGGAGTCACCTAGTGCAG | 4090 fluorescence intensity (a.u.) |
| CATAAATTACTTACTTCCTCCGTCCCAAAATATAGCATTTCGGAGTCACCTAGTGCAG | 14600 fluorescence intensity (a.u.) |
| ATTTGATTAAGTTTTAGTTATTACAAACTTTGTAAATTAACGGAGTCACCTAGTGCAG | 29600 fluorescence intensity (a.u.) |
| AGGTTATTATTTAAATTCAAATTAGTGAAATTTTACATAACGGAGTCACCTAGTGCAG | 5620 fluorescence intensity (a.u.) |
| CCGACTGATTATGCCGCCGCCGACTGGTGCTTTTATCTTCCGGAGTCACCTAGTGCAG | 15100 fluorescence intensity (a.u.) |
| CCCGCGTTCTAAAGTGCTAATTAAGGTTAGTTACTCCTCACGGAGTCACCTAGTGCAG | 3270 fluorescence intensity (a.u.) |
| CATAAATTATGCTAAGGATTAATTATGGTCAGTCTACTAACGGAGTCACCTAGTGCAG | 20500 fluorescence intensity (a.u.) |
| AATTTCAATCAAATTTTCAATTTTGGCGTGAACTAAACACCGGAGTCACCTAGTGCAG | 25600 fluorescence intensity (a.u.) |
| CTTAGATTTAATGATGAACTCCGTGAAAATCCTGTGCTGACGGAGTCACCTAGTGCAG | 24600 fluorescence intensity (a.u.) |
| TAAAATTGAAGCCTCGAAGCAATCTTTAACTTTTCTCTTCCGGAGTCACCTAGTGCAG | 4580 fluorescence intensity (a.u.) |
| ATAACAAAATAAATTACAGATTCCGCCAGAAAACTGCGAGCGGAGTCACCTAGTGCAG | 7960 fluorescence intensity (a.u.) |
| TTATTAGCGCATGATTAATTAAGTACCCGTCCGTTCCAAACGGAGTCACCTAGTGCAG | 5370 fluorescence intensity (a.u.) |
| TAAAACTGATATGTCACATTAGTATTAATATTAGAAGCAGCGGAGTCACCTAGTGCAG | 11400 fluorescence intensity (a.u.) |
| TAAATTTAAAGCAATTTAACTTTAATTAAAGTTTAAATAACGGAGTCACCTAGTGCAG | 19800 fluorescence intensity (a.u.) |

| Sequence | binding signal |
| --- | --- |
| TCTTGCTATTATAACTCCAATCAAACTACGAATTCTGGTACGGAGTCACCTAGTGCAG | 3450 fluorescence intensity (a.u.) |
| TTTAGATAGATAAGTAAGCAGTGAGCTACCTAGCTAGCTACGGAGTCACCTAGTGCAG | 4460 fluorescence intensity (a.u.) |
| TTTAACAAATGATTTTACTCATTCATCGTGTGACACATCCCGGAGTCACCTAGTGCAG | 11100 fluorescence intensity (a.u.) |
| AGTAATTATATCACATTGCTTTTAGATTCAAACAGCAACACGGAGTCACCTAGTGCAG | 19500 fluorescence intensity (a.u.) |
| ACAGTAAGTACAAGTTTCAATCAACCTGAGATAAACTTTTCGGAGTCACCTAGTGCAG | 3340 fluorescence intensity (a.u.) |
| AATCTAATTATCGTTTAGAAACCTGAGGATTATTAAATTTCGGAGTCACCTAGTGCAG | 8980 fluorescence intensity (a.u.) |
| CGGGTTTGATTTGATTTGATTTTGATTTTGATTTGCTTCTCGGAGTCACCTAGTGCAG | 53400 fluorescence intensity (a.u.) |
| CTGACTGGTGACGCCTGTTGATAACCGTAGATACGCTTGCCGGAGTCACCTAGTGCAG | 3680 fluorescence intensity (a.u.) |
| GTATTAATCAAACATCAGTCAAACTGTTGTGGCAGCCGCACGGAGTCACCTAGTGCAG | 11000 fluorescence intensity (a.u.) |
| CTAAATTGCAGTCCCAGTAGCGACTGCAGCTGATCCGGATCGGAGTCACCTAGTGCAG | 10900 fluorescence intensity (a.u.) |
| AAAATATATTCAATTATTGATTTGATGCCACTAATTCAGTCGGAGTCACCTAGTGCAG | 23600 fluorescence intensity (a.u.) |
| TCTGTAATTATATCAGGTTGCTCTTGAACTATGCAGTCAGCGGAGTCACCTAGTGCAG | 16900 fluorescence intensity (a.u.) |
| ATCAATCAAAATCAATAAAGCTAGCGCACTAGGATTACACCGGAGTCACCTAGTGCAG | 11200 fluorescence intensity (a.u.) |
| CGTCTATCAAATTGCGAAACCAGATAAAACGTGTAAGCTTCGGAGTCACCTAGTGCAG | 4610 fluorescence intensity (a.u.) |
| GATCCTTTGATTAAACACAACTAACTTCCACGTTGCATATCGGAGTCACCTAGTGCAG | 6320 fluorescence intensity (a.u.) |
| GCAAAATTTTAGCAATTACTTACAAATAACCGATCTAAAACGGAGTCACCTAGTGCAG | 12000 fluorescence intensity (a.u.) |
| AATGTAATTACTTCTAATGCTATAGAGAGCTACTTCTACTCGGAGTCACCTAGTGCAG | 19900 fluorescence intensity (a.u.) |
| GTCTGACAGGACAGTGGCGACCCAATCCCCAATCTCCATTCGGAGTCACCTAGTGCAG | 8460 fluorescence intensity (a.u.) |
| CCATCAAATCCCAATCTAACAATTGTGATTCAACGTATGTCGGAGTCACCTAGTGCAG | 4340 fluorescence intensity (a.u.) |
| TTTTAATTATATGGTAGACGCATACGCACACACCTCTACGCGGAGTCACCTAGTGCAG | 25000 fluorescence intensity (a.u.) |
| TAGAATAAAGTAATTTGATTTGAATACAAAGTCGAATTAACGGAGTCACCTAGTGCAG | 8180 fluorescence intensity (a.u.) |
